Laboratory results as given in PubChem BioAssay AID485344 (National Center for Advancing Translational Sciences (NCATS), 2010).
The whole screen tested about 340,000 compounds, of which about 6,900 (2%) were called active. Rule as the data show it: active = inhibition above about 30%; inactive = below that, where a call was filed. The entries are a selection whose mix differs from that of the whole data set. The source gives no active or inactive call for entries shown without one.

What follows are compounds tested against D(2) dopamine receptor (Homo sapiens) (UniProt P14416) (assay: HTS Assay for Allosteric Antagonists of the Human D2 Dopamine Receptor: Primary Screen for Antagonists). Details: HEK293 TREx D2 cells, calcium flux, dopamine EC80; at 10 µM; stronger effect = higher value.
In short: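 Measurement of antagonist activity uses fluorescent calcium dye in inducible HEK293 T-REx D2 cells: 10 s baseline, compound addition with 180 s read, EC80 dopamine addition with a further 180 s read.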
Also: 0% is about no effect.

Chain of UniProt P14416 (P14416 whole entry, looked up): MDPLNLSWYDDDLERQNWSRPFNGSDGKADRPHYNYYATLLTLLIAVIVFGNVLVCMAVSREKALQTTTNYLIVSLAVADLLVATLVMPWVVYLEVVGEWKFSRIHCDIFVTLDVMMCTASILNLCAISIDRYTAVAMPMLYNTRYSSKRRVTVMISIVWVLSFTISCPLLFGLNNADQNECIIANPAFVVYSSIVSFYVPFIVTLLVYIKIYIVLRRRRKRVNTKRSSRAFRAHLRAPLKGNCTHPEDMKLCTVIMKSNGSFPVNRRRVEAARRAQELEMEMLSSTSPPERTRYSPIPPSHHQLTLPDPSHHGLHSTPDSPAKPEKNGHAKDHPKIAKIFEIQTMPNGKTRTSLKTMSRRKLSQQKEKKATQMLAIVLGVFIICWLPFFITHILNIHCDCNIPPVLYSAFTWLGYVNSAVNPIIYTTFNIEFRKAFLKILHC

Compound | inhibition
CC(=O)c1ccc(N2CCN(S(=O)(=O)c3ccc4c(c3)C(C)(C)C(=O)N4)CC2)cc1 | 8.85%
Oc1ccccc1-c1nc(/C=C/c2ccc(F)cc2)nn1-c1ccccc1 | -0.54%
CCCn1c2ccccc2c2cnn(CC(=O)N(CCCOC)Cc3ccco3)c(=O)c21 | 20.4%
COc1cccc(/C=C/C(=O)Nc2ccc3nc(N4CCN(C)CC4)cc(C)c3c2)c1OC | -4.42%
CCOc1ccc(NC(=O)CSc2ncc3c(n2)-c2ccccc2N(Cc2ccccc2C)S3(=O)=O)cc1 | 4.45%
O=C(NC1CCCC1)c1ccc(CSc2nc3cccnc3n2Cc2ccc(F)cc2)cc1 | -3.5%
CC(C)c1nc2ccc(C(=O)NC(C)c3ccccc3)cc2o1 (stereo unspecified) | 14.1%
O=C(Nc1ccc(N2CCOCC2)cc1)c1ccc(Br)o1 | active: 71.2%
CCc1ccccc1N1CC(c2nc3ccccc3n2CCCCOc2ccccc2)CC1=O (stereo unspecified) | 0.892%
Fc1ccc(Nc2nc3ccccc3s2)cc1 | active: 32.8%
COc1cc(-c2nc3nc(C)cc(C)n3c2Nc2ccc(Cl)cc2)ccc1O | -11.1%
COc1ccc(C(=O)Nc2ccc(-c3nnc4n3CCCCC4)cc2)cc1OC | 12.4%
COC(=O)c1cccc(-n2c(CCC(=O)O)ccc2-c2cccs2)c1 | -21.4%
O=C(c1cc2ccc3cccnc3c2[nH]1)N1CCN(c2ccccc2)CC1 | 0.606%
COc1ccc(Cn2c(C(=O)O)c(CNCc3ccc(C)o3)c3ccc(C)cc32)cc1 | 2.45%
Cc1ccsc1C(=O)C1CCCN(Cc2cc(F)ccc2-n2cccn2)C1 (stereo unspecified) | active: 34%
CC(=O)N1CCc2nc3sc(C(=O)Nc4ccc(Cl)cc4F)c(N)c3c(C(F)(F)F)c2C1 | -4.82%
Cc1cc2oc(=O)cc(CSc3nnc(-c4cccs4)o3)c2cc1C(C)C | active: 36.4%
COc1ccc(CCNC(=O)C(=O)NCC(c2ccco2)S(=O)(=O)c2cccs2)cc1OC (stereo unspecified) | -10.2%
CCC(=O)N1CCc2cc(S(=O)(=O)NC(CC(C)C)C(=O)NCCc3ccccc3)ccc21 (stereo unspecified) | -12.6%
O=C(c1nc(-c2ccc(Cl)cc2)n2c1CCCCC2)N1CCN(c2ccccc2)CC1 | -7.71%
CCOC(=O)c1c(-c2ccccc2)oc2ccc(N(C(C)=O)S(=O)(=O)c3ccc(CC)cc3)cc12 | -10.1%
OC(CCN1CCCCC1)(c1ccccc1)C1CCCCC1 (stereo unspecified) | active: 46.4%
O=C(COc1ccccc1-c1nc(-c2ccccc2)no1)Nc1cccc([N+](=O)[O-])c1 | -17.3%

Compound | inhibition
O=C(COc1ccc(Cl)cc1)Nc1ccc2nc(SCC(=O)N3CCCC3)sc2c1 | -0.474%
Cc1nn(C(=O)c2cccc(Cl)c2)c(C)c1S(=O)(=O)N1CCOCC1 | 14.1%
CCn1c(=O)cc(SCC(=O)NCc2ccc(OC)cc2OC)c2ccccc21 | 0.211%
COC(=O)c1cc2oc3ccccc3c2n1CC(=O)Nc1ccc(Cl)cc1F | -5.87%
COc1cccc(-n2c(SCC(=O)Nc3c(C)cc(C)cc3C)nc3c([nH]c4ccccc43)c2=O)c1 | 10.7%
COc1cccc2c1cc1c(=O)n(CC(=O)NCc3ccc(C)o3)nc(C)n12 | 9.97%
Cc1ccc(CCNC(=O)c2cc3c(s2)-c2c(C)cccc2OC3)cc1 | -7.69%
COc1cccc(CNC(=O)c2ccc(-c3nc(COc4ccccc4)c(C)o3)cc2)c1 | -0.424%
CCc1ccc(N2CCN(CCNC(=O)Nc3ccccc3)CC2)cc1 | active: 73.5%
CCOc1ccc(C2CC(c3c(O)n(C4CCCCC4)c(=O)[nH]c3=O)=Nc3ccccc3S2)cc1 (stereo unspecified) | -8.95%
Cc1ccc2nc(COc3ccccc3NC(=O)C(C)(C)C)cc(=O)n2c1 | -11.7%
Cc1ccc(NS(=O)(=O)c2ccc(-n3cccn3)cc2)cc1Cl | -0.568%
O=C(CSc1nnc2ccc3ccccc3n12)Nc1ccccc1Cl | -8.8%
O=C(Cc1ccc(F)cc1)NCc1ccc2c(c1)CCN2C(=O)c1ccc(F)cc1 | -6.27%
CCOC(=O)N1CCc2c(sc3c2c(=O)n(-c2ccccc2C(F)(F)F)c(=O)n3Cc2ccccc2C)C1 | -0.531%
Cc1nn(-c2ccc(F)cc2)c(-n2cccc2)c1C(=O)NCCc1ccc(Cl)cc1 | -0.0679%
Cc1cc(C)n2nc(CNS(=O)(=O)c3ccc(C)c(C)c3)nc2n1 | 13.1%
COc1ccc(NC(=O)CSc2nc3nc(C)c(Cc4ccccc4)c(C)n3n2)cc1OC | 22.8%
O=C(C1CCN(S(=O)(=O)c2cccc3nonc23)CC1)N1CCN(c2cccc(Cl)c2)CC1 | 20.7%
Nc1nc(SCC(=O)Nc2ccc(Cl)cc2)[nH]c(=O)c1-c1ccccc1 | active: 35.6%
CCc1ccc(NC(=O)CN2C(=O)C(c3ccc(C)cc3)=NC23CCCCC3)cc1 | -4.73%
CCc1ccc(CNC(=O)Cn2nc(C)n3c(cc4cc(C)ccc43)c2=O)cc1 | 19.4%
Cc1cccc(Cn2cccc2CNS(=O)(=O)c2ccccc2F)c1 | -4.76%
COc1ccc(NC(=O)C(Cc2ccccc2)NS(=O)(=O)c2ccc3c(c2)CCC(=O)N3)c(OC)c1 (stereo unspecified) | -6.49%

Compound | inhibition
CCOc1ccccc1CNC(=O)C1CCN(c2nnc(-n3c(C)ccc3C)s2)CC1 | -2.75%
CCCCOc1ccc(C2=NC(c3ccncc3)=Nc3ccc(OCC)cc3N2)cc1 | 3.18%
Cc1cc(C)n(CCCNC(=O)C(C)(C)Oc2ccc(Cl)cc2)n1 | active: 30.7%
O=C(Cn1c(=O)n(CC2CCC(C(=O)NCCc3ccccc3)CC2)c(=O)c2ccccc21)Nc1ccccc1 (stereo unspecified) | 2.76%
COc1ccc2sc(N(Cc3cccnc3)C(=O)C3CCCCC3)nc2c1 | -9.59%
CCOC(=O)c1cccc(NC(=O)c2cc3ccccn3n2)c1 | -1.14%
Cc1ccc(C)c(N2CCN(C(=O)c3cc4c(=O)n(Cc5ccccc5)ccc4nc3C)CC2)c1 | 6.62%
Cc1ccc2c(c1)N(C(=O)N1CCC(C(=O)NCCc3ccc(Cl)cc3)CC1)CC(C)O2 (stereo unspecified) | -9.68%
Cc1cccc(NS(=O)(=O)c2ccc3[nH]c4c(c3c2)CCCCCC4)c1 | 0.164%
CCOc1cccc2c1N[C@@H](c1ccc(C(=O)O)cc1)[C@H]1CC=C[C@@H]21 | 7.57%
Cc1ccc(-n2nc(C)c3c(C)c(CCC(=O)NCc4ccccc4Cl)c(C)nc32)cc1C | 5.41%
COc1cc(OC)cc(C(=O)Nc2ccc([N+](=O)[O-])cn2)c1 | active: 50.2%
CCOC(=O)c1cc(-c2ccc(F)cc2)n(CC(=O)NC2CCCCCC2)c1C | -6.43%
COc1ccc(NC(=O)c2c(NC(=O)COc3ccccc3)sc3c2CCC(C(C)(C)C)C3)cc1 (stereo unspecified) | 4.06%
Cc1ccc(CN(Cc2ccco2)C(=O)c2ccc(OCC(C)C)cc2)cc1 | -16.9%
CCCCN1CCc2nc(Nc3ccc(OC)cc3OC)ncc2C1 | -10.8%
CC(C)c1nn2c(=O)cc(COC(=O)c3ccc(NC(=O)C4CCCCC4)cc3)nc2s1 | -3.47%
COc1ccc2[nH]c3c(c2c1)CCN(C(=O)c1cccc(Cl)c1)C3c1ccc(F)cc1 (stereo unspecified) | 5.29%
Cc1ccc(S(=O)(=O)N2CCCc3cc(NS(=O)(=O)c4cc(C)ccc4C)ccc32)cc1 | 19%
COc1ccc(-c2cc(-c3ccccc3)nc3c2COc2ccc(F)cc2-3)cc1 | -7.74%
CCN(CC)C(=O)Cn1c(=O)cc(C)c2c(C)nn(-c3ccc(C)cc3)c21 | 24.8%
CCOc1ccc(NC(=O)c2cc(OC)nc3ccccc23)cc1 | active: 56.9%
CCOc1ccc(NC(=O)c2ccc3c(c2)CCN3S(=O)(=O)CC)cc1 | 8.68%
O=C(CC1C(=O)N(c2ccccc2)C(=O)N1Cc1ccc(F)cc1)Nc1cccc(F)c1 (stereo unspecified) | -13.7%

Compound | inhibition
COc1ccc(-c2cn3cccnc3n2)cc1NC(=O)Nc1ccc(Cl)cc1 | -5.88%
Cc1ccc(C(=O)c2oc3ccccc3c2NC(=O)COc2ccc(C(C)C)cc2)cc1 | 10.9%
CCn1cc(C(=O)N[C@@H](C)C(=O)OC)c(=O)c2cc3c(cc21)OCO3 | active: 44.4%
O=C(Nc1ccc(S(=O)(=O)Nc2ncccn2)cc1)c1cc(=O)c2ccccc2o1 | 8.89%
Cc1sc2c(c1C)c(=O)n(Cc1ccccc1)c(=O)n2Cc1ccc(F)cc1 | -3.8%
COc1ccc(NC(=O)c2c(-c3ccccc3)c(-c3ccccc3)nn(C)c2=O)cc1OC | 15.5%
Cc1cccc(-n2ncc3c(Nc4ccc(C)c(Cl)c4)ncnc32)c1 | 9.32%
Cc1ccc(C)c(Cn2c(=O)n(C(C)C)c(=O)c3oc4ccccc4c32)c1 | -1.01%
Cc1ccccc1NC(=O)CCS(=O)(=O)c1cc(Br)cc2c1N(C(=O)C1CC1)CC2 | 13.2%
CCc1nn(CC(=O)N2CCCCC2)c(=O)c2cc3sc(C)cc3n12 | -3.16%
Cc1ccccc1CNC(=O)CN1C(=O)C2CCCCN2c2ccc(C(=O)N3CCCC3)cc21 (stereo unspecified) | 1.46%
O=C(Nc1ccc2c(c1)N(C1CCCC1)C(=O)c1ccccc1S2)c1ccccc1F | 0.363%
CC1CC(C)CN(CCOc2ccccc2-c2ccccc2)C1 (stereo unspecified) | active: 78.8%
CCOC(=O)c1cccc(NC(=O)C2Cc3ccccc3N2C(=O)c2ccccc2)c1 (stereo unspecified) | -1.54%
CCOc1ccc(C(=O)NC2CC(=O)N(c3ccc(C)cc3)C2)cc1OCC (stereo unspecified) | 13.8%
Cc1ccc(-c2nc(NC(=O)CSc3nc(C)nc4sc5c(c34)CCCC5)ns2)cc1 | 2.7%
Cc1ccc(Nc2nc3ccccc3c3nncn23)c(Cl)c1 | -16.2%
CC1CCN(S(=O)(=O)c2ccc3c(ccn3CCC(=O)NCc3ccccc3F)c2)CC1 | -6.04%
Cc1csc(/C(=N/OC(=O)c2ccco2)C(N)=O)n1 | active: 41.7%
CCOC(=O)c1cc2occc2n1Cc1ccc(F)cc1 | active: 34.2%
Nc1ccc(C(=O)N/N=C\c2ccc(OC(=O)c3ccccc3Cl)cc2)cc1 | active: 32.6%
Cc1ccc(C)c(S(=O)(=O)c2nnn3c2nc(NC2CCCCC2)c2sccc23)c1 | -6.69%
CCc1ccc(-n2nc(CO)c(C(=O)NCCCc3ccccc3)n2)cc1 | -21.3%
CCSc1ccccc1C(=O)Nc1ccc(-c2nc3ccccc3s2)c(O)c1 | -7.2%
